± gives the uncertainty stated by the source. Over roughly 9,900 compounds, “viability index relative to DMSO control” has its median near 1; the lowest 2% begin near 0.85. This is one part of the list.
Each compound was assayed on Plasmodium falciparum NF54 stage V gametocytes (assay: viability index relative to DMSO control (fraction); higher = less gametocyte killing). Conditions: 2.5 µM, library set: Broad Institute DOS, incubation time: 72 h.
Summary of the method: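 Gametocytes (P. falciparum NF54, stage V) were treated with compound at 2.5 µM for 72 hr at 37°C in low oxygen, in serum-free medium at 0.75% gametocytemia and 1.25% hematocrit. Counts of 20–70 µm2 red particles, taken from one field per well after MitoTracker Red CMXRos with saponin, were divided by the plate mean of solvent-only wells. This ratio is the viability index.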
`CN(C)C(=O)c1ccc(-c2ccc3c(c2)[C@@H]2[C@@H](CCN2C(=O)C2CCCC2)[C@@H](CO)N3C)cc1` showed a viability index of 1.08 ± 0.12.
`C/C=C/c1ccc([C@@H]2[C@H]3CN(C(=O)c4ccncc4)CC(=O)N3[C@H]2CO)cc1` gave a viability index of 0.92 ± 0.062.
`CCS(=O)(=O)N1CC[C@@]2(CC1)CN([C@@H](CO)c1c2c2ccc(OC)cc2n1C)C(=O)Nc1c(C)noc1C` was tested, and the viability index was 0.999 ± 0.033.
`CO[C@@H]1CN(C)C(=O)c2ccc(NC(=O)C3CCC3)cc2OC[C@@H](C)N(Cc2ccccn2)C[C@@H]1C` gave a viability index of 1.088 ± 0.008.
Compound `COc1ccc(CN(C)C[C@@H]2OCCCC[C@@H](C)Oc3ccc(NC(=O)C4CCCCC4)cc3C(=O)N([C@H](C)CO)C[C@@H]2C)cc1` has a viability index of 1.06 ± 0.021.
For `CC(=O)N1Cc2cc(C(=O)NCC(F)(F)F)nc(-c3cccc(-c4cc5ccccc5o4)c3)c2[C@H]1CCO`, the viability index was 1.04 ± 0.057.
`O=C(C[C@@H]1CC[C@@H]2[C@H](COC[C@@H](O)CN2C(=O)Nc2ccccc2)O1)NCc1ccccc1F` showed a viability index of 1.12 ± 0.035.
`CO[C@@H]1CN(C)C(=O)c2ccc(NC(C)=O)cc2OC[C@H](C)N(C(=O)c2cnccn2)C[C@H]1C` was tested, and the viability index was 0.961 ± 0.073.
With `CC(C)c1cn(CC[C@H]2CC[C@H](NS(=O)(=O)c3ccc(F)cc3)[C@H](CO)O2)nn1` the viability index was 1.05 ± 0.13.
`CN(C)CC(=O)N1CCCCN2[C@@H](CO)[C@@H](c3ccc(-c4cncnc4)cc3)[C@@H]2C1` gave a viability index of 1.01 ± 0.056.
Compound `Cc1noc(C)c1S(=O)(=O)N(C)C[C@H]1Oc2c(NC(=O)c3ccc(-c4nccs4)cc3)cccc2C(=O)N([C@H](C)CO)C[C@H]1C` has a viability index of 0.946 ± 0.06.
Work on `N#Cc1cccc(-c2ccc3c(c2)[C@H]2[C@H](CCN2S(=O)(=O)c2ccc(F)cc2)[C@@H](CO)N3)c1` yielded a viability index of 0.949 ± 0.023.
`COc1cccc(S(=O)(=O)N2C[C@H](O)COC[C@@H]3O[C@@H](CC(=O)N4CCN(c5ccccc5)CC4)CC[C@H]32)c1` showed a viability index of 1.038 ± 0.0048.
`CCCNC(=O)N[C@H]1C=C[C@H](CC(=O)N2CCN(C)CC2)O[C@@H]1CO` gave a viability index of 1.02 ± 0.022.
`CCCNC(=O)N1C[C@]2(CCN(CC2)C(=O)C2CCOCC2)c2c([nH]c3cc(OC)ccc23)[C@H]1CO` was tested, and the viability index was 1.04 ± 0.043.
In the case of `Cc1ccccc1-c1cnc2c(c1)C(=O)N([C@@H](C)CO)C[C@H](C)[C@H](CN(C)Cc1ccccc1F)O2`, the viability index is reported as 1.09 ± 0.045.
With `O=C(C[C@H]1C[C@@H]2c3cc(NC(=O)c4cccnc4)ccc3O[C@@H]2[C@H](CO)O1)NCc1cc(F)ccc1F` the viability index was 1.08 ± 0.02.
With `CCS(=O)(=O)Nc1ccc2c(c1)C(=O)N(C)[C@H]1CC[C@H](CC(=O)N3CCN(C)CC3)O[C@H]1CO2` the viability index was 1.02 ± 0.12.
Work on `COC(=O)[C@H]1[C@H](CO)[C@H]2Cn3c(ccc(-c4cncnc4)c3=O)[C@H]2N1CCC(F)(F)F` yielded a viability index of 1.08 ± 0.023.
`C[C@H]1CN([C@@H](C)CO)C(=O)c2ccccc2-c2ccccc2CO[C@H]1CN(C)C(=O)Nc1cccc(Cl)c1Cl` showed a viability index of 0.9208 ± 0.0078.
`O=C(C[C@H]1CC[C@@H]2[C@H](COC[C@H](O)CN2S(=O)(=O)c2cccc(F)c2)O1)NCc1ccncn1` gave a viability index of 1.032 ± 0.0033.
`C/C=C/c1ccc([C@H]2[C@@H](C#N)N(C(=O)NC3CCCCC3)[C@H]2CO)cc1` showed a viability index of 1.13 ± 0.013.
`O=C(C[C@H]1CC[C@H]2[C@@H](COC[C@@H](O)CN2C(=O)c2ccccc2F)O1)NCc1ccc(Cl)c(Cl)c1` gave a viability index of 1.094 ± 0.0057.
`N#C[C@H]1[C@@H](c2ccccc2/C=C/c2ccccc2)[C@@H](CO)N1C(=O)Nc1ccccc1` was tested, and the viability index was 0.987 ± 0.081.
Work on `CCCN(C)C[C@@H]1OCCCC[C@H](C)Oc2ccc(NC(=O)CCCN(C)C)cc2C(=O)N([C@H](C)CO)C[C@@H]1C` yielded a viability index of 1.07 ± 0.22.
`C[C@H]1CN([C@@H](C)CO)C(=O)c2cc(-c3ccncc3)cnc2O[C@@H]1CN(C)C(=O)CN1CCOCC1` was tested, and the viability index was 1.063 ± 0.0024.
In the case of `C[C@@H]1CN([C@H](C)CO)C(=O)c2cc(N(C)C)ccc2O[C@@H]1CN(C)CC1CCCCC1`, the viability index is reported as 1.0152 ± 0.00043.
`C/C=C/c1ccc([C@@H]2[C@H](CO)N3C(=O)CN(Cc4ccc(F)cc4)C[C@@H]23)cc1` showed a viability index of 1.01 ± 0.035.
`O=C(C[C@H]1CC[C@H]2[C@@H](COC[C@H](O)CN2C(=O)Nc2cc(Cl)cc(Cl)c2)O1)N1CCOCC1` was tested, and the viability index was 0.9857 ± 0.0071.
Work on `CCC(=O)N1C[C@@]2(C1)CN([C@H](CO)c1c2c2ccc(OC)cc2n1C)C(=O)c1cnccn1` yielded a viability index of 1 ± 0.024.
`Cc1noc(C)c1S(=O)(=O)N(C)C[C@H]1OCc2cnnn2CCCC(=O)N([C@@H](C)CO)C[C@H]1C` gave a viability index of 1.05 ± 0.08.
In the case of `Cc1noc(C)c1S(=O)(=O)N(C)C[C@@H]1OCc2cn(nn2)CCCC(=O)N([C@@H](C)CO)C[C@@H]1C`, the viability index is reported as 1.0256 ± 0.001.
`COc1ccccc1C#Cc1ccc2c(c1)[C@H]1[C@H](CCN1C(=O)c1ccncc1)[C@@H](CO)N2` showed a viability index of 1.06 ± 0.042.
`COc1ccccc1-c1ccc2c(c1)[C@@H]1[C@@H](CCN1S(=O)(=O)c1ccc(C)cc1)[C@H](CO)N2` gave a viability index of 0.836 ± 0.028.
In the case of `C[C@@H]1CCCCO[C@H](CN(C)Cc2ccncc2)[C@H](C)CN([C@H](C)CO)C(=O)c2cc(NS(=O)(=O)c3ccc(Cl)cc3)ccc2O1`, the viability index is reported as 0.97 ± 0.073.
